Measurements: article PMC9911399, “Two distinct binding modes provide the RNA-binding protein RbFox with extraordinary sequence specificity”
Changes are numbered by the printed parent chain; changes in the protein carry UniProt numbers. The list shows a part of the results.

T1: RBFOX1 RRM (Homo sapiens, UniProt Q9NWB1 109-208)
T1 sequence: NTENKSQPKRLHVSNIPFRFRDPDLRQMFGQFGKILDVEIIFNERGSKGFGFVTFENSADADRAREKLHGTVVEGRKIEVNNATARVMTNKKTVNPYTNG

B1: ACAGAAG (DNA:RNA)
RNA: GGGAGACCGGAAUUCAGAUUGUCCACAGAAGUUAAAUCCCGUCGUAGCCACCA
DNA 1: CAATCTGAATTCCGGTCTCCC
DNA 2: TGGTGGCTACGACGGGATT
B2: CUUACGA (DNA:RNA)
RNA: GGGAGACCGGAAUUCAGAUUGUCCCUUACGAUUAAAUCCCGUCGUAGCCACCA
DNA 1: CAATCTGAATTCCGGTCTCCC
DNA 2: TGGTGGCTACGACGGGATT
B3: CGGCAUG (DNA:RNA)
RNA: B1 RNA with A25C, C26G, A27G, G28C, A30U
DNA 1: CAATCTGAATTCCGGTCTCCC
DNA 2: TGGTGGCTACGACGGGATT
B4: UCGAUAG (DNA:RNA)
RNA: B1 RNA with A25U, A27G, G28A, A29U
DNA 1: CAATCTGAATTCCGGTCTCCC
DNA 2: TGGTGGCTACGACGGGATT
B5: GUGUCUA (DNA:RNA)
RNA: B2 RNA with C25G, U27G, A28U, G30U
DNA 1: CAATCTGAATTCCGGTCTCCC
DNA 2: TGGTGGCTACGACGGGATT
B6: UCCACUG (DNA:RNA)
RNA: B1 RNA with A25U, A27C, G28A, A29C, A30U
DNA 1: CAATCTGAATTCCGGTCTCCC
DNA 2: TGGTGGCTACGACGGGATT
B7: CCUGCUA (DNA:RNA)
RNA: B2 RNA with U26C, A28G, G30U
DNA 1: CAATCTGAATTCCGGTCTCCC
DNA 2: TGGTGGCTACGACGGGATT
B8: AGCUAGC (DNA:RNA)
RNA: B1 RNA with C26G, A27C, G28U, A30G, G31C
DNA 1: CAATCTGAATTCCGGTCTCCC
DNA 2: TGGTGGCTACGACGGGATT
B9: ACUCAUC (DNA:RNA)
RNA: B1 RNA with A27U, G28C, A30U, G31C
DNA 1: CAATCTGAATTCCGGTCTCCC
DNA 2: TGGTGGCTACGACGGGATT
B10: GCCUCAC (DNA:RNA)
RNA: B1 RNA with A25G, A27C, G28U, A29C, G31C
DNA 1: CAATCTGAATTCCGGTCTCCC
DNA 2: TGGTGGCTACGACGGGATT
B11: GCUUCAG (DNA:RNA)
RNA: B1 RNA with A25G, A27U, G28U, A29C
DNA 1: CAATCTGAATTCCGGTCTCCC
DNA 2: TGGTGGCTACGACGGGATT
B12: CUUGUCG (DNA:RNA)
RNA: B2 RNA with A28G, C29U, G30C, A31G
DNA 1: CAATCTGAATTCCGGTCTCCC
DNA 2: TGGTGGCTACGACGGGATT
B13: CUACUCA (DNA:RNA)
RNA: B2 RNA with U27A, A28C, C29U, G30C
DNA 1: CAATCTGAATTCCGGTCTCCC
DNA 2: TGGTGGCTACGACGGGATT
B14: UGAAACG (DNA:RNA)
RNA: B1 RNA with A25U, C26G, G28A, A30C
DNA 1: CAATCTGAATTCCGGTCTCCC
DNA 2: TGGTGGCTACGACGGGATT
B15: CAGACAA (DNA:RNA)
RNA: B2 RNA with U26A, U27G, G30A
DNA 1: CAATCTGAATTCCGGTCTCCC
DNA 2: TGGTGGCTACGACGGGATT
B16: AACUUGC (DNA:RNA)
RNA: B1 RNA with C26A, A27C, G28U, A29U, A30G, G31C
DNA 1: CAATCTGAATTCCGGTCTCCC
DNA 2: TGGTGGCTACGACGGGATT
B17: GUACGAA (DNA:RNA)
RNA: B1 RNA with A25G, C26U, G28C, A29G, G31A
DNA 1: CAATCTGAATTCCGGTCTCCC
DNA 2: TGGTGGCTACGACGGGATT
B18: CUCGACC (DNA:RNA)
RNA: B1 RNA with A25C, C26U, A27C, A30C, G31C
DNA 1: CAATCTGAATTCCGGTCTCCC
DNA 2: TGGTGGCTACGACGGGATT
B19: UGGAAUU (DNA:RNA)
RNA: B1 RNA with A25U, C26G, A27G, G28A, A30U, G31U
DNA 1: CAATCTGAATTCCGGTCTCCC
DNA 2: TGGTGGCTACGACGGGATT
B20: CGAGGCU (DNA:RNA)
RNA: B1 RNA with A25C, C26G, A29G, A30C, G31U
DNA 1: CAATCTGAATTCCGGTCTCCC
DNA 2: TGGTGGCTACGACGGGATT
B21: UGCUGUU (DNA:RNA)
RNA: GGGAGACCGGAAUUCAGAUUGUCCUGCUGUUUUAAAUCCCGUCGUAGCCACCA
DNA 1: CAATCTGAATTCCGGTCTCCC
DNA 2: TGGTGGCTACGACGGGATT
B22: GAUGAUA (DNA:RNA)
RNA: B1 RNA with A25G, C26A, A27U, A30U, G31A
DNA 1: CAATCTGAATTCCGGTCTCCC
DNA 2: TGGTGGCTACGACGGGATT
B23: GGACUGU (DNA:RNA)
RNA: B21 RNA with U25G, C27A, U28C, G29U, U30G
DNA 1: CAATCTGAATTCCGGTCTCCC
DNA 2: TGGTGGCTACGACGGGATT
B24: ACGUGAU (DNA:RNA)
RNA: B1 RNA with A27G, G28U, A29G, G31U
DNA 1: CAATCTGAATTCCGGTCTCCC
DNA 2: TGGTGGCTACGACGGGATT
B25: CUAGGAU (DNA:RNA)
RNA: B1 RNA with A25C, C26U, A29G, G31U
DNA 1: CAATCTGAATTCCGGTCTCCC
DNA 2: TGGTGGCTACGACGGGATT
B26: GACGAAC (DNA:RNA)
RNA: B1 RNA with A25G, C26A, A27C, G31C
DNA 1: CAATCTGAATTCCGGTCTCCC
DNA 2: TGGTGGCTACGACGGGATT
B27: GCGGCUU (DNA:RNA)
RNA: B1 RNA with A25G, A27G, A29C, A30U, G31U
DNA 1: CAATCTGAATTCCGGTCTCCC
DNA 2: TGGTGGCTACGACGGGATT
B28: AUCUUAU (DNA:RNA)
RNA: B21 RNA with U25A, G26U, G29U, U30A
DNA 1: CAATCTGAATTCCGGTCTCCC
DNA 2: TGGTGGCTACGACGGGATT
B29: GGCUUAU (DNA:RNA)
RNA: B21 RNA with U25G, G29U, U30A
DNA 1: CAATCTGAATTCCGGTCTCCC
DNA 2: TGGTGGCTACGACGGGATT
B30: UAUAGUG (DNA:RNA)
RNA: B21 RNA with G26A, C27U, U28A, U31G
DNA 1: CAATCTGAATTCCGGTCTCCC
DNA 2: TGGTGGCTACGACGGGATT
B31: UCCUGGC (DNA:RNA)
RNA: B21 RNA with G26C, U30G, U31C
DNA 1: CAATCTGAATTCCGGTCTCCC
DNA 2: TGGTGGCTACGACGGGATT

biological target: T1, RBFOX1 RRM; assay: EMSA; HiTS-Eq, 1 nM pool, 10 min; buffer printed only for the single-RNA assays: 10 mM Tris pH 7.5, 150 mM NaCl, 3.4 mM EDTA, 0.001% NP-40, 30 C; conditions: tags: His6 N-terminal (pET28a); label: 5' 32P
Summary of the method: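 Purified RbFox RRM (wild type or mutant) was equilibrated for 10 min in 50 µL with 1 nM of a 5′-radiolabelled pool of RNA with 7 randomized nucleotides, its flanks annealed to DNA oligonucleotides, across increasing protein concentrations. Free RNA was separated by 8% native PAGE, excised, reverse-transcribed, PCR-barcoded and sequenced on an Illumina HiSeq 2500. Relative association constants came from read-count changes of each variant against the control reaction, normalised to the cognate motif.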

Binder	binding signal
B1	0.00619 KA relative to UGCAUGU
B2	0.00902 KA relative to UGCAUGU
B3	0.573 KA relative to UGCAUGU
B4	0.0169 KA relative to UGCAUGU
B5	0.0128 KA relative to UGCAUGU
B6	0.00657 KA relative to UGCAUGU
B7	0.00973 KA relative to UGCAUGU
B8	0.0134 KA relative to UGCAUGU
B9	0.000194 KA relative to UGCAUGU
B10	0.00961 KA relative to UGCAUGU
B11	0.0196 KA relative to UGCAUGU
B12	0.0183 KA relative to UGCAUGU
B13	0.00175 KA relative to UGCAUGU
B14	0.0162 KA relative to UGCAUGU
B15	0.00171 KA relative to UGCAUGU
B16	0.00991 KA relative to UGCAUGU

Binder	binding signal
B17	0.0118 KA relative to UGCAUGU
B18	0.00337 KA relative to UGCAUGU
B19	0.0217 KA relative to UGCAUGU
B20	0.0118 KA relative to UGCAUGU
B21	0.0254 KA relative to UGCAUGU
B22	0.0132 KA relative to UGCAUGU
B23	0.0223 KA relative to UGCAUGU
B24	0.00623 KA relative to UGCAUGU
B25	0.00324 KA relative to UGCAUGU
B26	0.00753 KA relative to UGCAUGU
B27	0.0242 KA relative to UGCAUGU
B28	0.00106 KA relative to UGCAUGU
B29	0.00892 KA relative to UGCAUGU
B30	0.0164 KA relative to UGCAUGU
B31	0.0109 KA relative to UGCAUGU
